Consider 84 compounds from PubChem BioAssay AID1346428 (National Center for Advancing Translational Sciences (NCATS), 2018).

Values joined by “and” are separate entries in the source; they are usually repeats but may differ in a detail not shown here. Equal entries are not always repeated. Screen size: about 48,000 compounds; about 1,200 (2.5%) were called active. Another 2% or so got no clear call; they are omitted.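 The calls were made as follows: active = activation of at least 60% and not above a set upper limit (about 1 call in 100 departs from these limits); inconclusive = activation of 40% to 60%, or above that upper limit; inactive = activation under 40%.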 The list shows a part of the results.

This experiment deals with Probable G-protein coupled receptor 32 (Homo sapiens) (UniProt O75388). As to the kind of experiment: qHTS for Agonists of Human Resolvin D1 Receptor DRV1. Also: 0% is about no effect. The settings on record: CHO-K1 GPR32 beta-arrestin PathHunter luminescence, 90 min; at 76.9 µM; active compounds read high; zero percent set by DMSO-only wells. The method, boiled down: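 Agonism was scored as beta-arrestin recruitment to ProLink-fused GPR32 in stably transfected CHO-K1 cells, giving a chemiluminescent beta-Gal signal; compounds were incubated 90 min at 37 °C.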
UniProt O75388, sequence (O75388 whole entry, looked up, the tested form may be a part): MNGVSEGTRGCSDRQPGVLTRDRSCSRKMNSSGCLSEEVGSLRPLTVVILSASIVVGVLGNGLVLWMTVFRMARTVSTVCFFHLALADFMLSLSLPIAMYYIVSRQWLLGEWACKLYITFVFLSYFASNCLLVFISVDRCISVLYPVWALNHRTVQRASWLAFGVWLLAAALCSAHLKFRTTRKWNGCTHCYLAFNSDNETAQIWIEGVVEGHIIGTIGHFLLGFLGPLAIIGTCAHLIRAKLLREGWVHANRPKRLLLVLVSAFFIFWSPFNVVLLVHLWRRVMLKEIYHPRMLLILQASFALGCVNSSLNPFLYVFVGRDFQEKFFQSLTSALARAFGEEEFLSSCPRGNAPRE
In the case of `O=C(Nc1cccc(C(F)(F)F)c1)c1cc2nc(-c3ccc4c(c3)OCO4)cc(C(F)(F)F)n2n1`, the activation is inactive: 6.61%. Next, `CC(C)(C)C(O)/C=C/c1ccc2c(c1)OCO2` (centres undefined): inactive: 29%; `Cc1ccc(Cn2cc(C(=O)c3ccc4c(c3)OCO4)c(=O)c3cc(C)ccc32)cc1`: inactive: -22.6%. Next, `COc1ccc(C)cc1NC(=O)N1CC(C)Sc2ccccc21` (centres undefined): inactive: -29.6%; `Cc1ccc(-c2nc(CSc3nncn4c3cc3occc34)c(C)o2)cc1`: inactive: -26.2%; `NCCc1nc2cccnc2n1-c1ccccc1`: inactive: -5.23%.

On to `CC1=C(C(=O)Nc2ccc(C)cc2C)C(c2ccc(C(=O)O)cc2)n2nc(SCc3ccccc3)nc2N1` (centres undefined), for which the activation is inactive: -0.943%. Next, `Cc1ccc2c(c1)c1c(c(=O)n(-c3ccccc3)c(=O)n1CC(=O)c1ccc(F)cc1)n2C`: inactive: 5.37%; `CCOc1ccc(CNC(=O)CC(C)n2nc(C)cc2C)cc1OC` (centres undefined): inactive: -5.51%; `Cc1ccc(NC(=O)c2ccc(CN3CC(=O)N4CCCCC4C3=O)cc2)cc1` (centres undefined): inactive: -20.9%. Consider `CCc1nn2c(=O)cc(COC(=O)c3ccc(NC(=O)COc4ccc(C)cc4)cc3)nc2s1`, for which the activation was inactive: -7.6%. Next, `Cn1c(SCC(=O)N2CCCc3ccccc32)ncc(C(=O)Nc2ccccc2)c1=O`: inactive: -6.96%; `CCc1cccc(NC(=O)Cn2c(=O)n(-c3cccc(Cl)c3)c(=O)c3c2c2cc(C)ccc2n3C)c1`: inactive: -8.78%; `COc1ccc(OC)c(CNC(=O)c2cnc3c(C)cccn3c2=O)c1`: inactive: -4.92%.

Take `CCN(c1ccccc1)S(=O)(=O)c1ccc(-c2cc(C)no2)s1`: the activation was inactive: -30.3%.

Take `Cc1cc(C)cc(NC(=O)CSc2nc(=O)n(Cc3ccccn3)c3c2CCC3)c1`: the activation was inactive: -0.987%.

As for `CCOC(=O)C(C)Sc1nc(-c2ccccc2Cl)cc(-c2ccccc2)c1C#N` (centres undefined), the activation was inactive: -2.25%. In the case of `CSc1ccc(Cn2nnc(C(=O)Nc3ccc(C)cc3Cl)c2N)cc1` it was active: 98.5%. Next, `CC[C@]1(O)C[C@@H]2CN(CCc3c([nH]c4ccccc34)[C@@](C(=O)OC)(c3cc4c(cc3OC)N(C)[C@H]3[C@@](O)(C(=O)OC)[C@H](OC(C)=O)[C@]5(CC)C=CCN6CC[C@]43[C@@H]65)C2)C1`: inactive: -33.1% and inactive: 3.05%; `Cc1ccc(C(=O)COC(=O)C(Cc2c[nH]c3ccccc23)NC(=O)c2ccc(C(C)(C)C)cc2)cc1` (centres undefined): inactive: -16.5%; `Cc1ccccc1C(=O)Nc1cccc(C(=O)OCc2cc(=O)n3ccsc3n2)c1`: inactive: 3.08%.

Turning to `Cc1ccc2[nH]c(=O)c(CN(C(=O)c3cccc(Cl)c3)C(C)(C)C)cc2c1`, the activation was inactive: 8.45%.

For `COc1ccc(-n2cc(-c3ccccc3)c3c(NC4CCCC4)ncnc32)cc1`, the activation is inactive: -35.2%. Next, `Cc1cccc(Oc2nc3c(c(=O)n(C)c(=O)n3C)n2Cc2ccccc2)c1C`: inactive: 21.3%. For `Cc1cccc(C)c1OCc1cc(=O)n2c3c(sc2n1)CCCC3`, the activation was inactive: 22.5%. In the case of `CC(C)CC(=O)Nc1cc(-c2ccccc2F)nn1-c1ccccc1` it was inactive: -17.5%; in that of `COCCNC(=O)Cn1c(=O)n(CCCCCC(=O)NCc2ccccc2Cl)c(=O)c2sccc21`, inactive: -21.8%.

As to `c1ccc(-c2noc(-c3cccnc3NCc3ccco3)n2)cc1`, the activation is inactive: -5.5%. In the case of `Cc1cccc(Cn2c(SCc3ccc(C(=O)NCc4ccccc4F)cc3)nc3ccncc32)c1` it was inactive: -6.81%; in that of `Cc1ccc(NC(=O)Cn2c(=O)oc3cc(S(=O)(=O)N4CCCCC4)ccc32)c(Cl)c1`, active: 111%; in that of `CCN(CC)CCCNC(=O)CCCn1ncn2c(cc3occc32)c1=O`, inactive: -6.87%.

On to `COc1ccc(CN(C(=O)c2cc3ccccc3oc2=O)C2CCS(=O)(=O)C2)cc1OC` (centres undefined), for which the activation was inactive: -4.95%. Next, `CC1CCCCN1C(=O)Cn1ncc2c3ccccc3n(Cc3ccccc3F)c2c1=O` (centres undefined): inactive: -19.3%. Next, `CC(C)(C)C1CCc2c(sc3nc(-c4cc5ccccc5oc4=O)[nH]c(=O)c23)C1` (centres undefined): inactive: 10.8%; `COc1ccccc1-c1noc(-c2ccc(NC3CCCCC3)c([N+](=O)[O-])c2)n1`: inactive: 11.5%. For the compound `CCCCN(CCCNC(=O)CN1N=C(c2ccc(C)cc2)CCC1=O)c1ccccc1`, the activation was inactive: -5.96%.

As for `COc1cccc(NC(=O)CCc2nc3c(C)nn(-c4ccc(C)cc4)c3n(C)c2=O)c1`, the activation was inactive: 6.02%.

Turning to `COCCCNC(=O)c1cnc2sc(N3CCCCCC3)nn2c1=O`, the activation was inactive: 4.43%. Next, `Cc1ccc2c(c1)-c1c(cnn1CC(=O)N1CCN(c3ccccc3F)CC1)CO2`: inactive: -14.5%; `O=c1c(=O)n(Cc2ccc(Cl)cc2)ccn1Cc1ccc(F)cc1`: inactive: -8.12%. Regarding `COc1ccc(-c2cn3cccnc3n2)cc1NC(=O)Cc1ccccc1`, the activation is inactive: -6.97%. In the case of `Cc1oc2ncn(CC(C)C)c(=O)c2c1C(=O)NCCc1ccccc1` it was inactive: -1.62%; in that of `COc1cccc(OCC(=O)NCCS(=O)(=O)N2CCN(c3ccccc3F)CC2)c1`, inactive: -25.7%; in that of `Cc1cc(C)n2c(Nc3ccc(C(C)C)cc3)c(-c3ccsc3)nc2n1`, inactive: -30.1%. As for `CCN(CC)C(=O)CSc1nc2ccsc2c(=O)n1Cc1ccccc1Cl`, the activation is inactive: -33.5%. With `CCc1nc2cccnc2n1-c1ccc(CC(=O)Nc2c(C)cccc2C)cc1`, the activation was inactive: 0.209%. In the case of `C[C@@H](C1=C(CCN(C)C)Cc2ccccc21)c1ccccn1` it was inactive: 9.08%; in that of `O=C(CCN1CCN2CCCC2C1)N1c2ccccc2Sc2ccc(Cl)cc21` (centres undefined), inactive: -5.23%; in that of `Cc1ccc(OCC(=O)NCC2(N(C)C)CCCCC2)cc1C`, inactive: 12.6%.

For the compound `Cc1ccc(C)c(NC(=O)Cn2c(=O)n(-c3ccc(CC(=O)NCC4CCCO4)cc3)c(=O)c3ccccc32)c1` (centres undefined), the activation is inactive: 0.118%. For `CCCCC(CC)COC(=O)c1ccccc1O` (centres undefined), the activation is inactive: -11.4%.

With `Cc1ccc(NC(=O)c2c(C)nc3sc(C(=O)Nc4ccc(F)cc4)c(N)c3c2-c2ccc(C)o2)c(C)c1`, the activation was inactive: -13.8%. In the case of `Cc1ccc(CNc2oc(-c3ccc(COc4ccc(C)cc4)o3)nc2C#N)cc1` it was inactive: -25.4%; in that of `CCCOc1ccc(C(=O)NCC2OCCc3ccccc32)cc1` (centres undefined), inactive: 7.25%; in that of `CC1CN(C(=O)CCC(=O)Nc2cc(F)ccc2F)c2ccccc2S1` (centres undefined), inactive: -21.8%.

Consider `COc1ccc(C(=O)Nc2ccc3oc(-c4ccc(F)cc4Cl)nc3c2)cc1`, for which the activation was inactive: 23.1%. In the case of `CCCc1nc2ccccc2n1CC(O)COc1ccc(C(=O)OC)cc1` (centres undefined) it was inactive: -11.6%; in that of `CCOC(=O)C1CCCN(C(=O)Cn2ncc3c(C)n(Cc4ccccc4Cl)c(C)c3c2=O)C1` (centres undefined), inactive: -2.31%. As to `CCc1ccc(CNC(=O)c2cc3ccccn3n2)cc1`, the activation was inactive: 3.01%. Next, `COc1ccc(C2C(C(=O)Nc3ccc(Cl)cc3)=C(C)Nc3nc(SCc4cccc(C)c4)nn32)cc1OC` (centres undefined): inactive: -5.02%. In the case of `COCCCN1C(=O)c2ccccc2CC1(C)C(=O)NC1CCCCC1` (centres undefined) it was inactive: -8.23%. Next, `CCC1CCCCN1S(=O)(=O)c1ccc(C(=O)Nc2sc3c(c2C(N)=O)CCC3)cc1` (centres undefined): inactive: -20.9%; `O=C(Nc1ccc(Cl)cc1F)c1cnc2sc(N3CCOCC3)nn2c1=O`: inactive: 6.08%; `CCN(CCCc1ccccc1)CCCc1ccccc1`: inactive: 30.6%. Turning to `Cc1ccc2nc(NC(=O)CSc3nccn3-c3ccc(Cl)cc3)sc2c1`, the activation is inactive: 13.6%.

In the case of `COc1ccc(-c2nc(C)c(CCNC(=O)c3cccs3)s2)cc1OC`, the activation is inactive: 2.95%. Consider `COc1ccccc1CNc1cc(C)nc2nc(-c3ccc(C)cc3)nn12`, for which the activation is inactive: 35.8%. With `CC(C)(C)OC(=O)N1CCC(c2c(C(=O)N3CCN(c4ccccn4)CC3)cnn2-c2ccccc2)CC1`, the activation was inactive: -8.78%. Next, `COc1ccc(CCNC(=O)c2cnn(-c3cccc(C)c3)c2C2CCN(C(=O)OC(C)(C)C)CC2)cc1OC`: inactive: -15.8%; `CC(C)COc1ccc(C(=O)N2CCCCC2CCN2CCCCC2)cc1` (centres undefined): inactive: 5.04%. Next, `Cc1cccc(-c2nnn3c2nc(NCc2ccc4c(c2)OCO4)c2ccccc23)c1`: inactive: -4.17%; `COc1cccc2c1ncc1c(-c3ccc(C)cc3)nn(-c3ccc(F)cc3)c12`: inactive: 2.91%. Next, `CC(=O)c1ccc(NC(=O)c2noc3c2CSc2ccccc2-3)cc1`: inactive: -6.99%; `CCc1cc(C(=O)Nc2sc(C)c(CC)c2C#N)no1`: inactive: -4.71%. For `CCc1ccc(CN2CCc3nc(N4CCN(c5ccccc5F)CC4)ncc3C2)cc1`, the activation is inactive: -9.34%. Take `CCCCOc1cccc(C(=O)Nc2cc(NC(=O)c3ccco3)ccc2OC)c1`: the activation was inactive: 23.2%. For `Cc1ccc(Cl)cc1N1CCN(C(=O)c2c(C)oc3ncnc(N4CCCCC4)c23)CC1`, the activation is inactive: -3.39%. Next, `COc1cccc(NC(=O)CCc2c(C)nc3nc(CNC(=O)c4cccc(F)c4)nn3c2C)c1`: inactive: -5.81%; `Cc1ccc(CNC(=O)c2c(O)nc3cc(C)ccn3c2=O)cc1`: inactive: 2.52%. Next, `CCc1ccc(C2=C(C)C(N3CCC(C(=O)NCc4ccccc4)CC3)=NS2(=O)=O)cc1`: active: 65.1%; `Cc1ccc2c(c1)-c1c(cnc3cc(-c4ccc(F)cc4)nn13)CO2`: inactive: 3.11%; `COc1ccc(-c2cnc(C)o2)cc1S(=O)(=O)Nc1c(C)cc(C)cc1C`: inactive: -2.49%.

On to `CC(c1ccccc1)n1cc2c(c1-c1ccccc1Br)c(=O)n(C)c(=O)n2C` (centres undefined), for which the activation is inactive: -24%. Next, `C#CCOc1ccc(-c2nnc(Nc3ccc(NC(C)=O)cc3)c3ccccc23)cc1`: inactive: -10.3%.
